In paper PMC12284681:
Positions count from the first letter of the chain named. Results are given in words; binding and its absence hold for the method and conditions named. In cells and extracts the contact can be indirect. Some results given as binding are weak or reduced against the parent protein; the word gives no strength. For some assays here: Where a sequence is shown, tags or fusion partners need not be part of it.

Amino acid sequences for entries named in this document (tags omitted).
UniProt P05412: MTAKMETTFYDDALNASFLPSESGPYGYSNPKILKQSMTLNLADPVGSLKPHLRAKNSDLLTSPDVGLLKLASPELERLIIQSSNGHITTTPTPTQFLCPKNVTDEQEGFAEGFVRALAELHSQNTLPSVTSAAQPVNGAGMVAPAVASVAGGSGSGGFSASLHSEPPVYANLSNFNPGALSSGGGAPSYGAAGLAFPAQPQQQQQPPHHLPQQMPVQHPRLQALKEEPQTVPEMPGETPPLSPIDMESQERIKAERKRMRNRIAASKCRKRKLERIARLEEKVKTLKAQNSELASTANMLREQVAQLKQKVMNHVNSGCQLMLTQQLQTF
UniProt P01100: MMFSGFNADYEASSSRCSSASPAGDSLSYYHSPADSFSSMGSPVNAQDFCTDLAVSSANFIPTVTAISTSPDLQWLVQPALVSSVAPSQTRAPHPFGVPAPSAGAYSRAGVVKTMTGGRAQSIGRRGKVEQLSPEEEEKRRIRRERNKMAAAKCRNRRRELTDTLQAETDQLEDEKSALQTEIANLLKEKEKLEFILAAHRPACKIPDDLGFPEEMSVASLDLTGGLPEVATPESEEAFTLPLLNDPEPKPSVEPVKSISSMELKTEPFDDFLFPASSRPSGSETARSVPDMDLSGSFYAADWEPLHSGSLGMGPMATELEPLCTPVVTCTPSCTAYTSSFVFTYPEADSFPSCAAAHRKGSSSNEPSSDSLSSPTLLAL
UniProt Q13177: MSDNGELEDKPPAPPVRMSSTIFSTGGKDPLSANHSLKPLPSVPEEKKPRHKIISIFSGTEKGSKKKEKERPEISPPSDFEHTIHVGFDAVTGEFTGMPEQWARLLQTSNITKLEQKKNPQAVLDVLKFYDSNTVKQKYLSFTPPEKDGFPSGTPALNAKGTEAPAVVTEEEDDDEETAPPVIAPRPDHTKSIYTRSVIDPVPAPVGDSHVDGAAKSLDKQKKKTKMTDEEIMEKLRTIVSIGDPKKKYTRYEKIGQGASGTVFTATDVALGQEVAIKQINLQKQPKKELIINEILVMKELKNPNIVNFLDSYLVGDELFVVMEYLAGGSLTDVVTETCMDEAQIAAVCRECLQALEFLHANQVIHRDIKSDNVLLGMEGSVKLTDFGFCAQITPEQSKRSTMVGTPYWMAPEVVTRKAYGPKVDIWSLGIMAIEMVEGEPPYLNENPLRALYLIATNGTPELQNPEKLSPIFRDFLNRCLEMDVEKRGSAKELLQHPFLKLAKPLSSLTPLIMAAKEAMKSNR

What was measured:
[1] = molecular target: T1, Flag-ALDOA, wild type (human) (UniProt P04075); assay: co-IP; HEK293T cells transiently transfected with Flag-ALDOA and/or Myc-c-Jun (WT or mutants); anti-FLAG or anti-MYC on protein A/G sepharose, 4 °C overnight; western blot
T1 sequence: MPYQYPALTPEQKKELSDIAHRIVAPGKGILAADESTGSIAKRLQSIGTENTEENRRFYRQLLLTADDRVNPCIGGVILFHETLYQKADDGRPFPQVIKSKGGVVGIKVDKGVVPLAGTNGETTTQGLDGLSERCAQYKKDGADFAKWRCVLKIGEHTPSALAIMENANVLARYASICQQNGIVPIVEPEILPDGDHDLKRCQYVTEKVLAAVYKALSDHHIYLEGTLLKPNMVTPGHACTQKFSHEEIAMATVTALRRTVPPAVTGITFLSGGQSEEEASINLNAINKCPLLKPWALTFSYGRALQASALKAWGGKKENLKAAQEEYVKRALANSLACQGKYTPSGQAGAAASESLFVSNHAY

Flag-ALDOA K230A (human) = molecular target: T2, Flag-ALDOA K230A (human) (UniProt P04075); assay: as above
T2 sequence: T1 sequence with K230A

Flag-ALDOA E35D (human) = molecular target: T3, Flag-ALDOA E35D (human) (UniProt P04075); assay: as above
T3 sequence: T1 sequence with E35D

Flag-ALDOA Y364S (human) = molecular target: T4, Flag-ALDOA Y364S (human) (UniProt P04075); assay: as above
T4 sequence: T1 sequence with Y364S

Flag-ALDOA K42N (human) = molecular target: T5, Flag-ALDOA K42N (human) (UniProt P04075); assay: as above
T5 sequence: T1 sequence with K42N

Flag-ALDOA D129V (human) = molecular target: T6, Flag-ALDOA D129V (human) (UniProt P04075); assay: as above
T6 sequence: T1 sequence with D129V

[2] = molecular target: T7, Aldolase A (ALDOA), endogenous (human (endogenous in HCCLM3, HepG2 and THLE2)) (UniProt P04075); assay: co-IP; endogenous proteins in HCCLM3 and HepG2 cell lysates; anti-ALDOA or anti-c-Jun (or control IgG) on protein A/G sepharose, 4 °C overnight; western blot
T7 sequence: T1 sequence

[3] = molecular target: c-Jun, endogenous (human (endogenous in HCCLM3, HepG2 and THLE2)) (UniProt P05412); assay: as above
[4] = molecular target: T7, Aldolase A (ALDOA), endogenous (human (endogenous in HCCLM3, HepG2 and THLE2)); assay: proximity ligation; Duolink PLA on fixed, permeabilised THLE2 and HCCLM3 cells; endogenous ALDOA and c-Jun; confocal microscopy, spots counted

In the case of “Myc-c-Jun, wild type (from UniProt P05412 1-331)”, the binding [1] is reported as “binds”, the binding (Flag-ALDOA K230A (human)) is reported as “binds” and the binding (Flag-ALDOA E35D (human)) is reported as “binds”. For the same substance, the binding (Flag-ALDOA Y364S (human)) was “no binding”, the binding (Flag-ALDOA K42N (human)) was “binds” and the binding (Flag-ALDOA D129V (human)) was “binds”.
With “c-Fos, endogenous (from UniProt P01100 1-380)” the binding [2] was “no binding”.
For “P21-activated kinase 2 (PAK2), endogenous (from UniProt Q13177 1-524) (enzyme)”, the binding [2] was “binds” and the binding [3] was “binds”.
“c-Jun, endogenous (from UniProt P05412 1-331)” was tested, and the binding [4] was “binds” and the binding [2] was “binds”.
